From the supplement of paper PMC12217912
This is one part of the list. Sequences were assembled here from the parent chain. Values near 0.05 are background.

B1: TEV protease; numbered along this chain (parent)
chain: MGESLFKGPRDYNPISSSICHLTNESDGHTTSLYGIGFGPFIITNKHLFRRNNGTLVVQSLHGVFKVKDTTTLQQHLVDGRDMIIIRMPKDFPPFPQKLKFREPQREERICLVTTNFQTKSMSSMVSDTSCTFPSGDGIFWKHWIQTKDGQCGSPLVSTRDGFIVGIHSASNFTNTNNYFTSVPKNFMELLTNQEAQQWVSGWRLNADSVLWGGHKVFMVKPEEPFQPVKEATQL

Variants of: B1
Assay: raw area under fraction-flipped curve 0-4 h after induction (AUC4h, not background-subtracted), DNA-recorder readout of cleavage of the substrate (dimensionless); higher = more cleavage of the substrate by the protease variant
Conditions: temperature: 34 °C; time window: 0-4 h after rhamnose induction
Procedure: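 In vivo DNA recorder in E. coli TOP10(DE3) ΔrhaA at 34 °C. Each TEVp single-site mutant (parent TEVp 0) is paired with a single-site variant of the 7-mer TEVs (canonical ENLYFQ|S). The substrate sits between flexible linkers in a Bxb1-sfGFP-TEVs-SsrA fusion, so cleavage stabilises Bxb1 and speeds flipping of a recombination array, read by NGS. The value is the raw area under the fraction-flipped curve over 0-4 h after rhamnose induction (AUC4h), with ≥20 reads per time point. It is not background-subtracted; inactive controls average about 0.047.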
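Further: Bxb1 expression induced with 0.2% (w/v) L-rhamnose at OD600 near 0.5, cultures sampled hourly, flipped fraction per protease–substrate barcode pair counted by paired-end Illumina sequencing.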

Variant	area with substrate ENLCFQS	area with substrate ENLDFQS	area with substrate ENLEFQS	area with substrate ENLFFQS	area with substrate ENLGFQS	area with substrate ENLHFQS	area with substrate ENLKFQS	area with substrate ENLMFQS	area with substrate ENLNFQS	area with substrate ENLPFQS	area with substrate ENLQFQS	area with substrate ENLRFQS	area with substrate ENLSFQS	area with substrate ENLWFQS	area with substrate ENLAFQS	area with substrate ENLLFQS	area with substrate ENLVFQS	area with substrate ENLIFQS	area with substrate ENLTFQS
I36P	0.05	0.0468	0.0385	0.043	0.0455	0.0426	0.059	0.0524	0.0431	0.0378	0.0438	0.0461	0.0279	0.0391					
H215Q	0.0496	0.0613	0.0659	0.0687	0.0645	0.0568	0.0338	0.0371	0.069	0.063	0.0591		0.0486	0.0605	0.0703	0.0524	0.0694		
H215V	0.0612			0.0542		0.0655	0.0592	0.0684		0.0612		0.0629	0.0652	0.0524	0.0573				
S18T	0.067	0.0644	0.0743	0.0986	0.0663				0.0696			0.0268		0.0953				0.101	
P222W	0.0672	0.061	0.0417	0.103		0.0651	0.0673		0.0609	0.0404	0.0571	0.0654	0.0649	0.0616	0.0577	0.0521		0.134	0.0466
G35R	0.0423	0.052	0.0439				0.0539						0.0347	0.0434					
G35E	0.0625	0.0509	0.0537	0.0367					0.0482										
L5M	0.104	0.0312	0.0425	0.0965				0.0864	0.0685	0.0706	0.0763	0.104						0.0948	
E223Q	0.0839	0.0592	0.0535	0.0706			0.0769	0.0822			0.0778	0.0564			0.0658	0.0729			
S209P		0.0591		0.0679	0.0651	0.0618		0.051	0.0662	0.0596	0.0705	0.0732			0.0631	0.0829		0.0596	
E108Q	0.0483	0.0499	0.0462	0.0636		0.057	0.0666	0.0571	0.0581	0.0655	0.0599	0.0704	0.0576	0.0553		0.0651			
P96C	0.0764	0.0519	0.0741	0.0881		0.0615	0.0653	0.0882	0.0595	0.0507	0.0727	0.0764	0.0563	0.0543					
P96R	0.0693	0.0716		0.0942	0.061	0.0885	0.0714							0.0832			0.0858		
P96A	0.0746	0.0619	0.0793			0.06			0.0605		0.0728		0.0593	0.0516		0.0738	0.0915		
R102Y	0.0338	0.048		0.0394								0.0381		0.0478					
R102G	0.0559	0.0222	0.0543	0.0585		0.0596	0.0602		0.051	0.0625	0.0546	0.0532	0.0561	0.0541		0.0549	0.0557		
